# Source: the antibiotic and cytotoxicity screens of Wong et al. (2023)
# This is one part of the list.
# Tests used:
# HSkMC = human skeletal muscle cells; experiment: cytotoxicity call (relative viability < 0.9); conditions: 10 µM
# HepG2 = experiment: cytotoxicity call (relative viability < 0.9); conditions: 10 µM
# S. aureus RN4220 = experiment: growth inhibition call (relative growth <= 0.2); conditions: 50 µM
SMILES,cytotoxicity call (HSkMC),cytotoxicity call (HepG2),growth inhibition call (S. aureus RN4220)
Cc1noc(C)c1NC(=O)Nc1cccc2c1O[C@@H](CN(C)C(=O)Nc1ccc(C(F)(F)F)cc1)[C@@H](C)CN([C@H](C)CO)C2=O,inactive,inactive,inactive
NCCCC(N)C(=O)O.NCCCC(N)C(=O)O.O=C(O)CCC(=O)C(=O)O,inactive,inactive,inactive
O=C(C1=C[C@H](c2coc3ccccc3c2=O)C[C@H](OCc2ccc(CO)cc2)O1)N1CCCCCCC1,inactive,inactive,inactive
COc1ccc(S(=O)(=O)N(C)C[C@@H]2Oc3ccc(NC(=O)Nc4c(C)noc4C)cc3C(=O)N([C@@H](C)CO)C[C@@H]2C)cc1,inactive,inactive,inactive
Cc1ccc(S(=O)(=O)N[C@@H]2C=C[C@H](CC(=O)NCCN3CCCCC3)O[C@H]2CO)cc1,inactive,inactive,inactive
COc1ccc(S(=O)(=O)N(C)C[C@H]2Oc3ccc(NC(=O)Cc4ccccc4)cc3C(=O)N([C@H](C)CO)C[C@H]2C)cc1,inactive,inactive,inactive
Cc1c(C(=O)O)sc(=O)n1C,inactive,inactive,inactive
Cc1noc(C)c1NC(=O)N(C)C[C@@H]1Oc2ccc(NC(=O)CCN3CCOCC3)cc2C(=O)N([C@H](C)CO)C[C@@H]1C,inactive,inactive,inactive
CC(C)(C)[S@](=O)N1Cc2cc(C(=O)N3CCCCC3)nc(-c3cccc(-c4ccccc4F)c3)c2[C@@H]1CCO,inactive,inactive,inactive
O=S1(=O)C[C@@H]2NC(=S)N[C@@H]2C1,inactive,inactive,inactive
C[C@H]1CN([C@@H](C)CO)C(=O)Cc2cc(NS(=O)(=O)c3cn(C)cn3)ccc2O[C@H]1CN(C)C(=O)Nc1ccccc1,inactive,inactive,inactive
O=C1c2ccccc2-c2c(-c3ccccc3)nc3ccccc3c21,inactive,inactive,inactive
C=C1CCC(=O)C(C)CCC2C1CC2(C)C (centres undefined),inactive,inactive,inactive
C[C@H](CO)N1C[C@H](C)[C@@H](CN(C)Cc2ccncc2)Oc2ccc(NS(=O)(=O)c3cn(C)cn3)cc2CC1=O,inactive,inactive,inactive
Cc1noc(C)c1NC(=O)Nc1ccc2c(c1)C(=O)N([C@@H](C)CO)C[C@H](C)[C@H](CN(C)Cc1ccc(C(F)(F)F)cc1)OCCCC[C@@H](C)O2,inactive,inactive,inactive
C[C@@H]1CN([C@@H](C)CO)S(=O)(=O)c2ccc(Br)cc2O[C@H]1CN(C)C(=O)c1cnccn1,inactive,inactive,inactive
Cc1noc(C)c1S(=O)(=O)N(C)C[C@@H]1OCCCC[C@@H](C)Oc2ccc(NC(=O)Nc3ccccc3)cc2C(=O)N([C@@H](C)CO)C[C@H]1C,inactive,inactive,inactive
CCCN(C)C[C@H]1OCCCC[C@@H](C)Oc2ccc(NC(=O)Nc3ccccc3)cc2C(=O)N([C@@H](C)CO)C[C@H]1C,inactive,inactive,inactive
Cc1ccc(S(=O)(=O)N(C)C[C@H]2Oc3ccc(NC(=O)Nc4cccc5ccccc45)cc3C(=O)N([C@@H](C)CO)C[C@@H]2C)cc1,inactive,inactive,inactive
C=CC[C@@H](CC(=O)N[C@H](CO)Cc1ccccc1)C(=O)N[C@H](C)COC(=O)[C@@H](CC=C)CC(=O)OC(C)(C)C,inactive,inactive,inactive
C=CC1=C(C(=O)O)N2C(=O)C(NC(=O)C(=NOCC(=O)O)c3csc(N)n3)C2SC1 (centres undefined),inactive,active,inactive
C[C@H](CO)N1C[C@H](C)[C@H](CN(C)S(=O)(=O)c2cccs2)Oc2ccc(NC(=O)Nc3cccc4ccccc34)cc2CC1=O,inactive,inactive,inactive
COC(=O)c1ccc(O)c(O)c1,inactive,inactive,inactive
NS(=O)(=O)C#Cc1ccccc1,active,active,inactive
C[C@@H]1CN([C@@H](C)CO)C(=O)c2cc(NS(=O)(=O)c3ccccc3)ccc2O[C@@H](C)CCCCO[C@@H]1CN(C)C(=O)Nc1ccc(C(F)(F)F)cc1,active,inactive,inactive
C[C@@H]1CCCCO[C@H](CN(C)Cc2ccc(C(F)(F)F)cc2)[C@@H](C)CN([C@@H](C)CO)C(=O)c2cc(NC(=O)Nc3ccc(C(F)(F)F)cc3)ccc2O1,inactive,inactive,inactive
COc1ccc(S(=O)(=O)N(C)C[C@H]2Oc3ccc(NC(=O)CCCN(C)C)cc3CC(=O)N([C@@H](C)CO)C[C@@H]2C)cc1,inactive,inactive,inactive
C=CC(C)(O)CCC=C(C)CCC=C(C)C (centres undefined),inactive,active,inactive
